From the antibiotic and cytotoxicity screens of Wong et al. (2023)
The other results are listed elsewhere or left out.

Assays:
HSkMC = human skeletal muscle cells; assay: cytotoxicity call (relative viability < 0.9); settings: 10 µM
HepG2 = assay: cytotoxicity call (relative viability < 0.9); settings: 10 µM
S. aureus RN4220 = assay: growth inhibition call (relative growth <= 0.2); settings: 50 µM

C[C@H]1CN([C@@H](C)CO)C(=O)Cc2cc(NC(=O)C3CC3)ccc2O[C@H]1CN(C)C(=O)NC1CCCCC1
inactive: cytotoxicity call (HSkMC) | cytotoxicity call (HepG2) | growth inhibition call (S. aureus RN4220)

CC(C)NC(=O)Nc1cccc2c1O[C@@H](CN(C)S(=O)(=O)c1cn(C)cn1)[C@H](C)CN([C@H](C)CO)C2=O
inactive: cytotoxicity call (HSkMC) | cytotoxicity call (HepG2) | growth inhibition call (S. aureus RN4220)

COc1ccc(S(=O)(=O)Nc2ccc3c(c2)C(=O)N([C@H](C)CO)C[C@@H](C)[C@H](CN(C)Cc2ccncc2)O3)cc1
inactive: cytotoxicity call (HSkMC) | cytotoxicity call (HepG2) | growth inhibition call (S. aureus RN4220)

O=C(C[C@@H]1CC[C@H]2[C@@H](COC[C@H](O)CN2S(=O)(=O)c2ccc(F)cc2)O1)NCCN1CCCCC1
inactive: cytotoxicity call (HSkMC) | cytotoxicity call (HepG2) | growth inhibition call (S. aureus RN4220)

Cc1ccc(S(=O)(=O)Nc2cccc3c2O[C@@H](CN(C)Cc2ccc(Cl)c(Cl)c2)[C@H](C)CN([C@@H](C)CO)C3=O)cc1
inactive: cytotoxicity call (HSkMC) | cytotoxicity call (HepG2) | growth inhibition call (S. aureus RN4220)

O=C(N[C@@H]1CC[C@H](CCn2cc(C3(O)CCCC3)nn2)O[C@H]1CO)C1CCOCC1
inactive: cytotoxicity call (HSkMC) | cytotoxicity call (HepG2) | growth inhibition call (S. aureus RN4220)

CCNC(=O)c1cccc(NS(C)(=O)=O)c1
inactive: cytotoxicity call (HSkMC) | cytotoxicity call (HepG2) | growth inhibition call (S. aureus RN4220)

Cc1ccc(S(=O)(=O)Nc2ccc3c(c2)C(=O)N([C@@H](C)CO)C[C@H](C)[C@H](CN(C)C(=O)Nc2c(C)noc2C)OCCCC[C@H](C)O3)cc1
inactive: cytotoxicity call (HSkMC) | cytotoxicity call (HepG2) | growth inhibition call (S. aureus RN4220)

CCN(CC)C(=O)c1cccnc1
inactive: cytotoxicity call (HSkMC) | cytotoxicity call (HepG2) | growth inhibition call (S. aureus RN4220)

COc1ccc(S(=O)(=O)N(C)C[C@@H]2Oc3c(NC(=O)NC(C)C)cccc3C(=O)N([C@@H](C)CO)C[C@H]2C)cc1
inactive: cytotoxicity call (HSkMC) | cytotoxicity call (HepG2) | growth inhibition call (S. aureus RN4220)
